Data from ChEMBL document CHEMBL4888484, “Replenishing the malaria drug discovery pipeline: Screening and hit evaluation of the MMV Hit Generation Library 1 (HGL1) against asexual blood stage Plasmodium falciparum ,using a nano luciferase reporter read-out” (2022).
The campaign covered roughly 4,800 compounds. About 420 (8.8%) showed an effect of 50% or more. This is one part of the list.

Test system: Plasmodium falciparum
Experiment: Confirmatory screen in NF54 nanoGlo assay, in single point, at 2uM, 72h
Format: functional, Erythrocyte
Settings: timepoint 72 hour

Row | SMILES | % Inhibition
1 | O=C(c1cccc(C(F)(F)F)c1)c1c[nH]c(C(=O)NCc2cccnc2)c1 | -23%
2 | CCCn1nnc(N(C(=O)c2cc(Br)cc(C)c2OC)C(=O)c2cc(Br)cc(C)c2OC)n1 | -6%
3 | COc1ccccc1CNC(=O)c1cnn2c3c(cnc12)CCCC3 | -12%
4 | CC[C@H](C)n1ncc(C(=O)N2CCNCC2)c1C1CC1 | -16%
5 | CC(C)c1nnc(Cn2nnc(-c3ccncn3)n2)s1 | -12%
6 | Cc1cc2n(n1)C(C(F)(F)F)CCN2C(=O)C(C)N1C(=O)C2CCCCC2C1=O (stereo not drawn) | 1%
7 | Cc1onc(N)c1S(=O)(=O)Nc1ccncc1 | -7%
8 | O=C(Nc1ccncc1)c1nc(N2CCCC2)ncc1Br | -5%
9 | Cc1ccc(NC(=O)[C@H]2CN(S(=O)(=O)C3CC3)CC23CCCCC3)c(C)c1 | 1%
10 | Cc1csc(NC(=O)[C@]2(C)Oc3ccccc3NC2=O)n1 | 0%
11 | Cn1nc(C2CC2)c2c(C(F)F)cc(C(F)F)nc21 | 4%
12 | O=C1COc2ccc(S(=O)(=O)N3CC[C@H]3c3ccccc3)cc2N1 | -5%
13 | Cc1cc(=O)n(CC(=O)Nc2ccc(Cl)c(C(F)(F)F)c2)c(-c2ccc(F)cc2)n1 | -6%
14 | C[C@@](CO)(NC(=O)Nc1cc(-c2ccco2)ccc1F)C1CC1 | -4%
15 | C[C@H](C(=O)Nc1ccc(F)cc1Cn1ccsc1=O)C1CC1 | -18%
16 | Cn1cc(Br)cc1C(=O)N1CC(O)(C2CC2)C1 | -2%
17 | O=C(NCCN1CCCC1)c1cc2n(n1)CCN(Cc1cccc(F)c1)C2=O | -9%
18 | COc1ccc(-c2cnn3ccc(-c4ccc(-n5ccc(=O)cc5)cc4)nc23)cc1OC | 5%
19 | Cc1cc(C)n(-c2c(C)[nH]c3ccccc23)n1 | -7%
20 | Cc1nn(C)c(C)c1S(=O)(=O)N1CCCN(c2ccc(F)c(F)c2)CC1 | 3%
21 | Cc1nnc(CNC(=O)Nc2cccc3c4c(oc23)CCCC4)o1 | 46%
22 | Cc1cc(F)ccc1-n1nnc(C(=O)O)c1-c1cccnc1 | -2%
23 | CC[C@@H](C(=O)NC)n1ccc2cc(S(=O)(=O)N3CCCCC3)ccc21 | -2%
24 | Cc1ccc(CCNC(=O)c2ccc(-c3nc(CS(=O)(=O)c4ccc(C)cc4)c(C)o3)cc2)cc1 | -14%
25 | CCNc1nc(C)cc(Nc2ccc(NC(=O)c3cc(C)ccc3C)cc2)n1 | 98%
26 | Cc1cc(C(=O)Nc2c(F)cccc2OCc2ccccc2)on1 | 19%

Row | SMILES | % Inhibition
27 | Fc1ccccc1-c1c2c(nc3ccc(Cl)cc13)CCCCCC2 | -10%
28 | COc1cccc(-c2noc3nc(C)cc(C(=O)N[C@@H](C)c4ccn(C)n4)c23)c1 | -10%
29 | Cc1ccc(S(=O)(=O)Nc2c(S(=O)(=O)c3ccccc3)c3nc4ccccc4nc3n2CCc2ccccc2)cc1 | 97%
30 | O=C(Nc1ccc(N2CCn3c(nc4cc(Cl)ccc43)C2)cc1)c1ccc(F)cc1 | -6%
31 | CN(C)c1nccc(NC[C@H](N)c2ccccc2)n1 | -13%
32 | O=C(c1ccc(F)cc1)c1c[nH]c(C(=O)NCc2ccc(F)cc2)c1 | -27%
33 | COc1cccc(N2CCN(c3cc4n[nH]c(=O)n4cn3)CC2)c1 | 4%
34 | Cc1ccoc1C(=O)Nc1ccc(Cc2nnc3ccccn23)cc1 | -10%
35 | CCNC(=O)c1nc(C(=O)NCc2ccco2)cs1 | -12%
36 | COc1ccc(-c2nn3c(C4CCN(C)CC4)nnc3s2)cc1 | -11%
37 | COc1ccc(-c2noc(CCn3c(=O)[nH]c4cc5c(cc4c3=O)OCO5)n2)c(OC)c1 | -1%
38 | COc1cccc(-c2nn(-c3nc(-c4ccccc4)cc(C(F)(F)F)n3)c(-c3cccc(OC)c3)c2Cl)c1 | 54%
39 | Cc1ccc(C)c(S(=O)(=O)NCCNc2ccc(Nc3ccncc3)nn2)c1 | 28%
40 | CCOC(=O)c1cc(F)cc(S(=O)(=O)Nc2ccnc3ncnn23)c1 | 34%
41 | COc1ccc(S(=O)(=O)N(CC(=O)NCc2cccnc2)C2CCCCC2)cc1OC | -1%
42 | COc1ccc(CCNC(=O)C2CCN(c3nccn4nc5c(c34)CCCC5)CC2)cc1OC | 43%
43 | O=C(NCc1ccc(F)cc1F)c1ccc(Cn2ccn3nc4c(c3c2=O)CCCC4)cc1 | -8%
44 | Cc1c(Cl)cccc1NC(=O)CN1N=C(C(=O)Nc2ccccc2)CCC1=O | -6%
45 | Cc1cc(-c2nnc(Cc3cccc(Cl)c3)o2)n(C)n1 | -6%
46 | CCc1ccc(C(=O)NCCCC2CCCC2O)cc1S(=O)(=O)N1CCOCC1 (stereo not drawn) | 48%
47 | O=C(O)C1Cc2c([nH]c3ccccc23)C(c2ccc3c4c(cccc24)CC3)N1 (stereo not drawn) | -1%
48 | CN(C)c1ccc(NC(=O)C[C@@H]2C=CCC2)cc1 | 1%
49 | CC[C@@H](C(N)=O)N1CCN(Cc2nc(-c3cccs3)no2)CC1 | -4%
50 | CC(C)c1cc(CN(Cc2cc(C(C)C)c(O)c(C(C)C)c2)C2CCCCC2)cc(C(C)C)c1O | 96%
51 | O=C(NCc1nccs1)[C@@H]1CCCN1C(=O)c1ccco1 | -11%
52 | CCc1ccc(C(=O)Nc2cnc(-n3ccnc3)nc2)cc1 | 46%

Row | SMILES | % Inhibition
53 | COc1ccc(NC(=O)C2(N(Cc3nc(-c4ccccc4)cs3)C(=O)Cn3nnc4ccccc43)CCCCC2)cc1 | 23%
54 | CCOc1ccc(C/C(=C/N)c2nc(-c3ccc(Cl)cc3)cs2)cc1 | 9%
55 | CC(=O)N(c1nc(COc2nc(C(C)(C)C)no2)cs1)c1ccccc1F | 17%
56 | COC1CCC(CC(=O)N[C@H]2CC(=O)N(c3ccccc3)C2)CC1 (stereo partly drawn) | 2%
57 | CNCCc1c(-c2ccccc2)[nH]n(-c2ccccc2)c1=O | 63%
58 | CCC[N+]1(CC#C[C@@](O)(c2ccccc2)C(C)(CC)CC)CCCCC1 | 48%
59 | COC(=O)c1cn(CCc2c[nH]c3ccccc23)cc(C(=O)OC)c1=O | 4%
60 | Cc1nn(Cc2ccc(Cl)cc2)c(=O)n1-c1ccc(OCc2ccccc2)cc1 | -9%
61 | Cc1noc(Cn2c(=O)c3ccccc3n(CC(=O)Nc3ccc(F)cc3F)c2=O)n1 | 1%
62 | CN(CCN)c1ccc(Br)cc1C#N | 0%
63 | O=C(CCC(=O)NCc1ccccc1)NCCCN1CCOCC1 | 4%
64 | Cc1ccc(F)cc1NC(=O)c1nnn(CC(=O)NCc2ccccc2Cl)c1C | -10%
65 | Cc1cc(C(=O)Nc2nc(-c3ccc4c(c3)CCC4)n[nH]2)no1 | 4%
66 | CCC(C)(C(=O)NC1CCCC1)N(C(=O)c1cccs1)C1CCCO1 (stereo not drawn) | -11%
67 | COCc1nncn1C1CN(C(=O)Cc2ccccc2C)C1 | -13%
68 | O=C(NC1CCCC1)c1cc2c(Cl)ccc3c2n1CCO3 | -2%
69 | CC(C)(CNC(=O)[C@](C)(N)c1ccccc1)C(=O)O | -11%
70 | Cn1cc(CCn2nccc2-c2ccc(F)c(Cl)c2)cn1 | -7%
71 | O=C(NC(c1ccccc1)C1CCOC1)c1cn(C2CCOC2)nn1 (stereo not drawn) | -1%
72 | Cc1ccc(NC(=O)[C@@H]2CC(=O)N=C(N3CCOCC3)N2)cc1Cl | 5%
73 | COC1(CNC(=O)NC2CC=CC2)CCC1 | 5%
74 | CC1CC(C)CC2(C1)NC(=O)N(CCC1OCCO1)C2=O (stereo not drawn) | -1%
75 | CN(C)c1nc(CN2CCC[C@H](c3n[nH]c(-c4ccccc4)n3)C2)ns1 | -1%
76 | CC1CN(C(=O)c2n[nH]c3ccccc23)CC(C)O1 (stereo not drawn) | -4%
77 | CC(C)(C)CC(=O)Nc1ccccc1C(N)=O | 6%
78 | COc1cc(NC(=O)N2CC(c3noc(-c4ccccc4)n3)C2)cc(OC)c1OC | 2%

Row | SMILES | % Inhibition
79 | O=C(C[C@H]1CCN(C(=O)c2cc(F)ccc2F)C1)NC1CC1 | -2%
80 | Cn1nnnc1NC/C=C/c1ccccc1 | -4%
81 | O=C1CN(CC[C@H]2CCCO2)CCN1c1cccs1 | -14%
82 | Cc1ccc(CN2CCC3(CC2)C[C@@H](C(=O)NCc2ccccn2)N(C)C3)s1 | 0%
83 | C[C@H](NC(=O)CC1(C)CCCCC1)c1cnn(C)c1 | -9%
84 | CCC(=O)N(Cc1ccc(-c2ccc(Cl)cc2)o1)[C@H]1CCS(=O)(=O)C1 | 38%
85 | O=C1CN(C(=O)Cn2c(-c3ccccc3)cc3ccccc32)c2ccccc2N1 | 15%
86 | O=C(CN1CCN(c2ccccc2F)CC1)c1ccc2c(c1)OCO2 | -1%
87 | O=S(=O)(Cc1cc(Cl)cc(Cl)c1)NCCCCn1ccnc1 | -6%
88 | COc1cc(CN(C)[C@H]2CCc3nnc(C4CCOCC4)n3CC2)cc(OC)c1 | -9%
89 | O=C1CC(C(=O)N2CCOCC2)C(c2ccc3c(c2)OCCO3)O1 (stereo not drawn) | 5%
90 | NC[C@H]1CN(CCc2cccc(Cl)c2)C(=O)O1 | -8%
91 | O=C1CC(c2cccc(Br)c2)N(S(=O)Oc2ccccc2)c2ccccc21 (stereo not drawn) | 4%
92 | Cc1csc([C@@H]2CN(c3cnccn3)CCO2)n1 | 1%
93 | CC(C)Nc1nc2nonc2n2cnnc12 | 69%
94 | Cc1nc(-c2ccccc2)cc2nn(CC(=O)N3CCOCC3)c(=O)n12 | -11%
95 | COc1ccc(CN2CCC(C(=O)NCCCN3CCOCC3)CC2)c(OC)c1 | 4%
96 | O=C(Nc1cccc2cccnc12)c1ccccn1 | 80%
97 | Cc1nccn1-c1ncc(NC(=O)Nc2ccccc2)cn1 | 3%
98 | CCCCC1NC(=O)N([C@@H]2CCC(=O)N[C@H]2c2ccccc2)C1=O (stereo partly drawn) | 2%
99 | O=C(Nc1ccc(Cl)cc1)n1c(=S)oc2cc(Br)ccc21 | -5%
100 | CN(C)c1cc(C(=O)N2CCOC3CCCCC32)ccn1 (stereo not drawn) | 0%
101 | Cc1ccc(NC(=O)COC(=O)c2ccc3c(c2)N=S=N3)cc1 | -9%
102 | O=C(O)c1cc(N2CCN(c3ccccc3F)CC2)ccc1NC(=O)C1CCC1 | -5%
103 | CC1(C)CC[C@H](NC(=O)CCNc2ncccn2)c2ccccc21 | -8%
